Measurements published in PubChem BioAssay AID1159614 (National Center for Advancing Translational Sciences (NCATS), 2016).
The whole screen tested about 45,000 compounds, of which about 65 (0.1%) were called active. Calls come from the whole dose curve; as a rule, active = well fitted activation curve with a large enough effect; inconclusive = small, poorly fitted or top-dose-only effect; inactive = no such curve, though single readings can be large or run the other way. Some of the results follow.

biological target: Galactocerebrosidase (Homo sapiens) (UniProt P54803); experiment: A Novel Cell-Based Assay to Identify Small Molecules for B -Galactocerebrosidase; details: 145M-Twi-hGALC-G270D cells (Twitcher mouse brain line with human GALC G270D), HMU-beta-Gal fluorescence, 48 h; series mostly up to 57.5 µM; activation: at the top concentration; note: 0% is about no effect; nearly all actives have a fitted effect of over 65% in size
Sequence of UniProt P54803 (P54803 whole entry, looked up): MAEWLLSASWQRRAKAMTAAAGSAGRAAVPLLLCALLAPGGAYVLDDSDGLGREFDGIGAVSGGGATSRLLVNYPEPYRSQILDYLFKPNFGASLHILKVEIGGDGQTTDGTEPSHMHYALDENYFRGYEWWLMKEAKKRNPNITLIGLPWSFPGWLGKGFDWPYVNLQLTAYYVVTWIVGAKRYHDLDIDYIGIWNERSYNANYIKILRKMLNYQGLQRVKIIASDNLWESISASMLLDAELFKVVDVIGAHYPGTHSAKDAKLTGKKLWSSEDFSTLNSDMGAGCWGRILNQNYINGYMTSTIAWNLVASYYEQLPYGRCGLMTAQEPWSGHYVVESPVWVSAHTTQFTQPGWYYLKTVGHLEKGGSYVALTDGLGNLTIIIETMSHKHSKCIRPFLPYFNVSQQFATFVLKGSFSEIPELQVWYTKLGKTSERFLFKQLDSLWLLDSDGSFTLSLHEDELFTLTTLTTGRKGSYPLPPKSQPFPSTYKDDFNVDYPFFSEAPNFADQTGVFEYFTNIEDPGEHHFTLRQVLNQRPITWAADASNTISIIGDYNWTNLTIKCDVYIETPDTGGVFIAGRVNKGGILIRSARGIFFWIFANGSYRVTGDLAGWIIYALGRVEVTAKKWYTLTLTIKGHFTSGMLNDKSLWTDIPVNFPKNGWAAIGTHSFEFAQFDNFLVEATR
Outline: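 Mutant human GALC (G270D), stably expressed in a Twitcher mouse brain cell line lacking endogenous GALC, is measured in live-treated cells via 6-hexadecanoylamino-4-methylumbelliferyl-β-galactoside hydrolysis (0.1 mM final, pH 5.2) with fluorescent detection.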

| Structure (SMILES) | activation |
| --- | --- |
| Oc1c(C(c2ccccc2)N2CCC3(CC2)OCCO3)sc2nc(-c3ccco3)nn12 (configuration not stated) | inactive: -14.9% |
| Cc1nc(N2CCOCC2)c2c(C(=O)NCc3cccc(Cl)c3)c(C)oc2n1 | inactive: -10.9% |
| CCOC(=O)Cc1ccc(NC(=O)Nc2cccc(OCc3cc(=O)n4cc(C)ccc4n3)c2)cc1 | inactive: -12.6% |
| COc1ccc(-c2nc3c(c(SCC(=O)Nc4ccc(C(=O)O)cc4)n2)Cc2ccccc2O3)cc1 | inactive: 1.53% |
| O=C(CCCCCn1c(=O)c2sccc2n(CC(=O)Nc2cccc(Cl)c2)c1=O)NCc1ccc2c(c1)OCO2 | inactive: -20.2% |
| Cc1ccc2c(=O)cc(C(=O)Nc3ccc(S(=O)(=O)N(C)Cc4ccccc4)cc3)oc2c1C | inactive: -7.52% |
| COc1cccc(C(=O)NCc2cn3ccccc3n2)c1 | inactive: -14.2% |
| O=C(CSc1nnc(-c2ccccc2)c(-c2ccccc2)n1)NC1CCCC1 | inactive: -9.82% |
| CCOc1ccc(C(=O)c2cn(CC(=O)Nc3ccc(F)cc3)c3cc4c(cc3c2=O)OCCO4)cc1 | inactive: -10.2% |
| CCOc1ccc(OCC)c(NS(=O)(=O)c2c(C(=O)N3CCCCCC3)c(C)n(C)c2C)c1 | inactive: -13.8% |
| O=C(NCCCO)C(=O)NCC(c1ccc2c(c1)OCO2)N1CCOCC1 (configuration not stated) | inactive: -7.67% |
| CN(N=O)C(=O)N[C@@H]1[C@@H](O)[C@H](O)[C@@H](CO)O[C@@H]1O | inactive: -18.2% |
| CCC(C)(C)NC(=O)C1CCN(S(=O)(=O)c2c(C)noc2/C=C/c2ccc(C)cc2)CC1 | inactive: -21.3% |
| COc1ccc(NC(=O)C2=CC(c3ccc4c(c3)OCO4)=NS(=O)(=O)N2C)cc1 | inactive: -23.7% |
| CCc1ccc(NC(=O)Cn2c(=O)n(CCCCC(=O)NCCc3ccccc3)c(=O)c3ccccc32)cc1 | inactive: -22.7% |
| Fc1ccc(-n2cc(-c3ccccc3)c3c(NCCc4ccccc4)ncnc32)cc1 | inactive: -7.94% |
| COc1ccc(C)cc1NC(=O)C1COc2ccccc2C1 (configuration not stated) | inactive: -20.9% |
| CCOC(=O)C1CCCN(S(=O)(=O)c2cc3c4c(c2)CC(=O)N4CCC3)C1 (configuration not stated) | inactive: -4.98% |
| COc1ccc(C2c3c(oc4ccc(C)cc4c3=O)C(=O)N2CCCN2CCOCC2)cc1OC (configuration not stated) | inactive: -13.3% |
| CCCCCCOC(=O)NC(=N)c1ccc(NCc2nc3cc(C(=O)N(CCC(=O)OCC)c4ccccn4)ccc3n2C)cc1 | inactive: -11.8% |
| COc1ccc(S(=O)(=O)NCC(c2ccc(N(C)C)cc2)N2CCCC2)cc1 (configuration not stated) | inactive: -14.2% |
| CCOC(=O)c1c(NC(=O)COc2c(C)cc(Cl)cc2Cl)sc2c1CCCC2 | inactive: -5.23% |
| COc1ccc(-c2noc(CC(=O)Nc3ccc(Br)cc3C)n2)cc1 | inactive: -8.18% |
| COc1cccc(CNC(=O)c2oc3c(c2C)-c2nn(Cc4cccc(Cl)c4)cc2CC3)c1 | inactive: -28.8% |

| Structure (SMILES) | activation |
| --- | --- |
| Cc1ccc(-n2c(=O)c3c4c(sc3n(Cc3ccccc3C)c2=O)CCC4)cc1C | inactive: -15% |
| CC(=O)NC(Cc1ccccc1)C(=O)O (configuration not stated) | inactive: -8.3% |
| Cc1cc(C)c(/C=C/c2onc(C)c2S(=O)(=O)N2CCC(C(=O)N(C)Cc3ccccc3)CC2)c(C)c1 | inactive: -14.4% |
| Cc1ccc(NC(=O)Nc2nnc(N(C)C3CCCCC3)s2)c(Cl)c1 | inactive: -4.8% |
| Clc1cccc(-n2cc(-c3ccccc3)c3c(N4CCCCC4)ncnc32)c1 | inactive: -8.58% |
| COc1ccc(O)cc1 | inactive: -11.7% |
| O=C(Nc1ccc2c(c1)OCO2)c1cc(-c2ccc(Br)cc2)on1 | inactive: -21.5% |
| Cc1ccccc1C(=O)Nc1nc2nc(-c3ccccc3)cc(=O)n2[nH]1 | inactive: -6.36% |
| NCCc1cnc[nH]1 | inactive: -7.37% |
| CCN1C(C(=O)c2ccccc2)=C(OC(=O)c2ccc(OC)cc2)c2ccccc2S1(=O)=O | inactive: -9.59% |
| Cn1c(=O)c2c(-c3ccc(Br)cc3)n(CCc3ccccc3)cc2n(C)c1=O | inactive: -28.2% |
| CCc1cccc(C)c1NC(=O)Cn1cc2c(n1)CCCC2 | inactive: -14.3% |
| CCN(Cc1ccccc1)C(=O)CCc1c(C)nc2c(c(C)nn2-c2ccc(C)c(C)c2)c1C | inactive: -2.49% |
| Cc1ccc(NC(=O)c2oc3ccc(S(=O)(=O)N4CCCCC4)cc3c2C)cc1Cl | inactive: -14.2% |
| CCOc1ccc(Nc2nc3c(S(=O)(=O)c4cccc(Cl)c4)nnn3c3ccsc23)cc1 | inactive: -14.5% |
| CC1=C(C(=O)Nc2ccccc2)C(c2ccc(C(=O)O)cc2)n2ncnc2N1 (configuration not stated) | inactive: -20.5% |
| CCc1ccc(OCC(=O)N(Cc2ccco2)Cc2ccccc2Cl)cc1 | inactive: -12.5% |
| COc1ccccc1N1CCN(C(=O)c2cn(C)c3ccc(S(=O)(=O)N(C)C4CCCCC4)cc3c2=O)CC1 | inactive: -14.7% |
| CCOc1ccc(NC(=O)c2cnn(-c3ccc(C)c(C)c3)c2C2CCN(C(=O)OC(C)(C)C)CC2)cc1 | inactive: -17.5% |
| Cc1ccc(C(=O)NCC(c2ccc3c(c2)OCO3)N2CCN(C)CC2)cc1C (configuration not stated) | inactive: -9.32% |
| CCc1noc(-c2ccc(NCc3ccccc3)c([N+](=O)[O-])c2)n1 | inactive: -6.66% |
| CCOC(=O)c1cnc2c(ccc3ccccc32)c1Nc1cccc(C(F)(F)F)c1 | inactive: -6.73% |
| Cc1ccc(NC(=O)CCCn2c(=O)c3cccn3c3ccccc32)c(C)c1 | inactive: -8.56% |
